# PubChem BioAssay AID686978 (National Center for Advancing Translational Sciences (NCATS), 2013)
# Where “and” joins values, the source holds several entries; their conditions need not be identical. Identical values can stand only once. In all, about 420,000 compounds went through this assay and about 64,000 (15%) were called active. Inconclusive means that the source gave no clear call. Such entries were picked first, then a sample of the others. The call rests on the fitted dose curve; in most records, active means well fitted inhibition curve with a large enough effect; inconclusive means small, poorly fitted or top-dose-only effect; inactive means flat fitted curve, though single readings scatter. Potencies of inconclusive entries are doubtful fits and often do not repeat.
# Test: qHTS for Inhibitors of human tyrosyl-DNA phosphodiesterase 1 (TDP1): qHTS in cells in absence of CPT; further: nearly all actives have a fitted effect of over 55% in size
# Settings: DT40 Tdp1-/- hTDP1 cells, no CPT, ATP luminescence, 48 h; activity change, negative = growth inhibition: at 46.2 µM (top of the series) unless noted
# How it was run: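 Camptothecin absent (DMSO only). Human TDP1-complemented DT40 knockout cells, 400 cells/well, 37 °C for minimum 48 hr; ATP measured via CellTiter-Glo, 30 min dark incubation, luminescence.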
# On the % scale 0 is the no-effect control and ±100 the full control effect; potency means the concentration at half of the fitted maximal effect; tags describe the fitted curve by direction and shape.
SMILES,Potency,"activity change, negative = growth inhibition"
O=C1OCCN1C(=O)[C@H]1[C@H](c2ccccc2)C(c2ccc(F)cc2)=NN1c1ccccc1,inactive,
COc1cc(Cl)c(C)cc1NC(=O)c1c(C)oc2nc(C)nc(N3CCCC3)c12,"inconclusive: 29.1 µM [inhibitor, single point]",
Cc1ccccc1-c1cc2nc(NCc3ccc(N(C)C)cc3)n(C)c(=O)c2s1,active: 16.4 µM,
COc1ccccc1N(C)S(=O)(=O)c1ccc(C(=O)NCCCN2CCCC2=O)cc1,"inconclusive: 29.1 µM [inhibitor, single point]",
Cc1ccc(S(=O)(=O)N2CCCOC2CNC(=O)C(=O)NCCc2ccco2)cc1 (stereo unspecified),"inconclusive: 29.1 µM [inhibitor, single point]",
Cc1ccc(C(=O)N/N=C/c2ccc(-c3ccc(Br)cc3[N+](=O)[O-])o2)o1,"inconclusive: 29.1 µM [inhibitor, single point]",
CC(=O)N1c2ccc(S(=O)(=O)N3CCCCC3)cc2CC1C(=O)Nc1ccccc1C(F)(F)F (stereo unspecified),inactive,
Cc1ccc(NC(=O)CCCCCN2C(=O)c3ccccc3C2=O)nc1,,inconclusive: -32.9% [inhibitor]
O=C(NCCCSc1ccccc1)c1cnc(Cl)c(Cl)c1,inactive,
CN(N=O)c1ccc(C=C2c3ccccc3-c3ccccc32)cc1,"inconclusive: 15.8 µM [inhibitor, single point]",
Cc1csc(C(=O)NN)c1N(C)C,inactive,
COc1cc(/C=N/NC(=O)c2nnn(-c3nonc3N)c2C(C)C)ccc1OCc1ccc(F)cc1,active: 20.6 µM,
COc1ccccc1NC(=O)c1ccc(S(=O)(=O)N2CCCC(C)C2)cc1 (stereo unspecified),inactive,
CCOc1ccc(OCC(=O)OC(C)C(=O)NC2CCCC2)cc1 (stereo unspecified),inactive,
CCN(CC)c1ccc(C(=O)OCc2c(C)noc2C)cc1,"inconclusive: 29.1 µM [inhibitor, single point]",
O=C(O)c1cccc(N2C(=O)C=CC2=O)c1,"inconclusive: 29.1 µM [inhibitor, single point]",
CCOc1ccc2[nH]c(=O)c(CN(CCO)C(=O)c3ccc(Br)cc3)cc2c1,inactive,
CN(Cc1ccccc1F)C(=O)c1ccccc1Sc1ccccc1C#N,"inconclusive: 29.1 µM [inhibitor, single point]",
CCCCCC(=O)N1C[C@@H](O)[C@H](n2cc(C3CC3)nn2)C[C@@H]1c1ccc(C)cc1,inactive,
O=C(c1cccc(S(=O)(=O)N2CCOCC2)c1)N1CCN(Cc2ccc3c(c2)OCO3)CC1,"inconclusive: 25.9 µM [inhibitor, single point]",
COCCSc1ccccc1C(=O)N1CCN(Cc2ccccc2)CC1,inactive,
Cc1cc(C)cc(NS(=O)(=O)c2ccc3[nH]cc(C(=O)N4CCCCC4)c(=O)c3c2)c1,inactive,
Cc1oc(-c2ccc(Cl)cc2)nc1CN1CCC(C(=O)NCCCN2CCOCC2)CC1,"inconclusive: 29.1 µM [inhibitor, single point]",
Cc1ccc(-n2cccc2/C=C2/C(=N)N3C(=NC2=O)SN=C3S(C)(=O)=O)cc1,inactive,

SMILES,Potency,"activity change, negative = growth inhibition"
COc1ccc(-n2c(=O)c(-c3cccc(F)c3)nc3cncnc32)cc1,inactive,
CC(C)(C)N1C(=O)c2ccccc2NC(=O)C1C(=O)NCCc1ccccc1 (stereo unspecified),"inconclusive: 18.4 µM [inhibitor, single point]",
COCCn1cc(C(=O)c2ccccc2OCC(=O)Nc2cc(C)on2)cc(C#N)c1=O,inactive,
COc1cc(CN2CCN(c3cccc(Cl)c3)CC2)cc(OC)c1OC,active: 5.8 µM,
COc1ccccc1Oc1nc([N+](=O)[O-])nn1CC(N)=O,"inconclusive: 29.1 µM [inhibitor, single point]",
Cc1cccc2c1NC1(CCCC1)CC2C (stereo unspecified),"inconclusive: 13 µM [inhibitor, partial curve, poor fit]",
COC(=O)[C@]12CCCCC=C1N(Cc1ccc(Cl)cc1Cl)C(=O)[C@H](CC(=O)NCCCN1CCCC1=O)C2,"inconclusive: 29.1 µM [inhibitor, single point]",
COc1cc(OC)cc(C(=O)NC(c2ccccc2)c2ccccc2)c1,"inconclusive: 0.517 µM [inhibitor, full curve, poor fit]",
CSc1ccc(S(=O)(=O)N(CC(=O)NCc2ccccn2)c2ccc(C)cc2)cc1,"inconclusive: 23.1 µM [inhibitor, partial curve, poor fit]",
NC(=O)c1sc(=S)n2c1[nH]c(=O)c1sccc12,inactive,
CCOc1cc2c(cc1OCC)C(CC(=O)OC)N(C(=O)Nc1cc(C)cc(C)c1)CC2 (stereo unspecified),inactive,
Cc1ccccc1NC(=S)NC(C)CCc1ccccc1 (stereo unspecified),active: 20.6 µM,
Cc1ccc(NC(=O)CCc2nc(-c3ccccc3F)no2)c(C)c1,"inconclusive: 18.4 µM [inhibitor, partial curve]",
Cc1cc(C(=O)COC(=O)c2ccc(N)c([N+](=O)[O-])c2)c(C)n1-c1ccc2c(c1)OCO2,active: 5.8 µM,
O=C(/C=C/c1ccco1)N1CCCC(c2ccccc2)C1 (stereo unspecified),"inconclusive: 25.9 µM [inhibitor, single point]",
COc1cc(C(=O)Nc2sc3c(c2C#N)CCCC3)c(Br)c(OC)c1OC,active: 3.26 µM,
Cc1cccnc1C1=NOC(Cc2ccccc2)C(=O)N1Cc1ccccc1F (stereo unspecified),"inconclusive: 29.1 µM [inhibitor, single point]",
C=CCn1c(CCc2ccccc2)nnc1SCC(N)=O,inactive,
Cc1ccccc1N1CCN(Cc2nc(Cc3ccccc3)no2)CC1,"inconclusive: 29.1 µM [inhibitor, single point]",
CCOc1ccccc1CNC(=O)c1ccc2c(c1)N(CC)CCS2,active: 9.2 µM,
COc1ccc(/C=C/C(=O)c2c(O)c(OC)c3occc3c2OC)cc1,"inconclusive: 23.1 µM [inhibitor, single point]",
COc1cccc(CNC(=O)C(Cc2ccccc2)NS(=O)(=O)c2ccc3c(c2)CCN3C(C)=O)c1 (stereo unspecified),inactive,
CCn1c(=O)c(C(=O)NCc2ccccc2Cl)c(O)c2ccccc21,"inconclusive: 29.1 µM [inhibitor, single point]",
COCCNc1nc(-c2cc(-c3ccc(Cl)cc3)on2)cc(C(C)C)n1,"inconclusive: 29.1 µM [inhibitor, single point]",

SMILES,Potency,"activity change, negative = growth inhibition"
CCCCOCCCNC1=NCCCCC1,inactive,
O=C(Nc1ccc(S(=O)(=O)NC2=NCCCCC2)cc1)c1cc(F)c(F)cc1Cl,"inconclusive: 18.4 µM [inhibitor, single point]",
COc1cc(/C=N/NC(=O)c2cc(C)oc2C)ccc1OCc1ccccc1,"inconclusive: 16.4 µM [inhibitor, single point]",
CN1CCN(c2nc(-c3ccc(Cl)s3)cs2)CC1,"inconclusive: 29.1 µM [inhibitor, single point]",
Cc1ccc(-n2nc(C(=O)NC(C)C)c(=O)n(C)c2=O)cc1,inactive,
O=C(CSc1ncc(-c2ccccc2)[nH]1)Nc1ccccc1F,"inconclusive: 16.4 µM [inhibitor, single point]",
CC(C)CC(O)(c1ccccc1)C(CN1CCOCC1)c1ccccc1 (stereo unspecified),active: 20.6 µM,
Cc1cccc(OCC(=O)Nc2nnc(S(=O)(=O)N3CCCCCC3)s2)c1,"inconclusive: 29.1 µM [inhibitor, single point]",
COC(=O)[C@]1(C)CCC[C@@]2(C)C3CC[C@@]4(C)C[C@]3(CC[C@H]12)C[C@H]4O (stereo partly specified),"inconclusive: 14.6 µM [inhibitor, partial curve, poor fit]",
CCSc1nc(N2CCOCC2)c2c(c1C#N)CC(C)(C)N(C)C2,"inconclusive: 29.1 µM [inhibitor, single point]",
CCCCCCS(=O)[C@H]1CS(=O)(=O)C[C@@H]1S(=O)CCCCCC (stereo partly specified),"inconclusive: 25.9 µM [inhibitor, single point]",
Cc1c(C(=O)N2CCCc3ccccc32)sc2nc(-c3ccccc3)cn12,"inconclusive: 18.4 µM [inhibitor, single point]",
CSc1ccccc1NC(=O)Nc1cccc(Cl)c1,"inconclusive: 22.4 µM [inhibitor, single point]",
COC(=O)CNC(=O)Cn1c(=O)n(Cc2ccc(F)cc2)c(=O)c2sccc21,"inconclusive: 23.1 µM [inhibitor, partial curve]",
c1ccc(CCCCN2CCN=C2Nc2ccccc2)cc1,active: 16.4 µM,
Cc1cccc(-c2nc(C#N)c(NC3CCCCC3)o2)c1,"inconclusive: 29.1 µM [inhibitor, single point]",
CC(=O)c1ccc(NC(=O)COc2ccccc2-c2nc(C(C)C)no2)cc1,"inconclusive: 8.2 µM [inhibitor, partial curve]",
S=C(N/N=C1\C2CN3CCN(C2)CC1(c1ccccc1)C3)Nc1ccccc1,"inconclusive: 29.1 µM [inhibitor, single point]",
COc1ccccc1CCn1c(=O)c(-c2cccs2)nc2cncnc21,inactive,
COCC(C)NC(=O)C1CC(=O)N(CCc2ccc(F)cc2)C1 (stereo unspecified),inactive,
Nc1c2nc(-c3ccccc3Cl)[nH]c(=O)c2nc(=O)n1-c1ccccc1,"inconclusive: 29.1 µM [inhibitor, partial curve, poor fit]",
CCOC(=O)c1c(C)[nH]c(C)c1S(=O)(=O)NCC(=O)Nc1cc(Cl)ccc1OC,inactive,
COc1ccc(S(=O)(=O)N2CCN(c3nc(-c4cccs4)nc4ccccc34)CC2)cc1,"inconclusive: 20 µM [inhibitor, single point] and inconclusive: 35.5 µM [inhibitor, single point]",
